For one experiment, the target named is GFP-RhoA^G14V (UniProt P61586). The experiment is described as follows: co-IP; GFP-RhoA^G14V co-expressed with myc-ROCK1 deletion mutants (Supplementary Figure S2A); beads and cells not told for this experiment.
Experiment [1] concerns the target T1, GFP-RhoBTB1^1–210 (human) (UniProt O94844).
T1 sequence: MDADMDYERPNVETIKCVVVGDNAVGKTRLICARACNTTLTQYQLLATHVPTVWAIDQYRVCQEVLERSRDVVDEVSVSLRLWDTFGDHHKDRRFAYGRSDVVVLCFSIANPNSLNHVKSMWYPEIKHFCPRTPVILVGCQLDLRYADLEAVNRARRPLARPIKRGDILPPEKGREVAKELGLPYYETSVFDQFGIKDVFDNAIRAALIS
The experiment is described as follows: co-IP; COS7 cells co-transfected, lysed after 24 h in IP lysis buffer (1% Triton X-100, 20 mM Tris pH 8, 130 mM NaCl, 1 mM DTT); GFP fusion held on GFP-trap beads; blots for myc or HA and GFP.

By UniProt entry, the sequences of proteins in these tests, tags left out. Where a name states a change or a piece, a line headed by the entry shows the natural chain unless it says otherwise.
UniProt P61586: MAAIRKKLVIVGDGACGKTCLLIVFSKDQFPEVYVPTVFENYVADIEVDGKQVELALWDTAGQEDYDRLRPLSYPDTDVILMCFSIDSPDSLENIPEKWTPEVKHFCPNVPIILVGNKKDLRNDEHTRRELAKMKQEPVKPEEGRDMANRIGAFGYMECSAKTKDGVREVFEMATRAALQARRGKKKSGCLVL
UniProt Q13464: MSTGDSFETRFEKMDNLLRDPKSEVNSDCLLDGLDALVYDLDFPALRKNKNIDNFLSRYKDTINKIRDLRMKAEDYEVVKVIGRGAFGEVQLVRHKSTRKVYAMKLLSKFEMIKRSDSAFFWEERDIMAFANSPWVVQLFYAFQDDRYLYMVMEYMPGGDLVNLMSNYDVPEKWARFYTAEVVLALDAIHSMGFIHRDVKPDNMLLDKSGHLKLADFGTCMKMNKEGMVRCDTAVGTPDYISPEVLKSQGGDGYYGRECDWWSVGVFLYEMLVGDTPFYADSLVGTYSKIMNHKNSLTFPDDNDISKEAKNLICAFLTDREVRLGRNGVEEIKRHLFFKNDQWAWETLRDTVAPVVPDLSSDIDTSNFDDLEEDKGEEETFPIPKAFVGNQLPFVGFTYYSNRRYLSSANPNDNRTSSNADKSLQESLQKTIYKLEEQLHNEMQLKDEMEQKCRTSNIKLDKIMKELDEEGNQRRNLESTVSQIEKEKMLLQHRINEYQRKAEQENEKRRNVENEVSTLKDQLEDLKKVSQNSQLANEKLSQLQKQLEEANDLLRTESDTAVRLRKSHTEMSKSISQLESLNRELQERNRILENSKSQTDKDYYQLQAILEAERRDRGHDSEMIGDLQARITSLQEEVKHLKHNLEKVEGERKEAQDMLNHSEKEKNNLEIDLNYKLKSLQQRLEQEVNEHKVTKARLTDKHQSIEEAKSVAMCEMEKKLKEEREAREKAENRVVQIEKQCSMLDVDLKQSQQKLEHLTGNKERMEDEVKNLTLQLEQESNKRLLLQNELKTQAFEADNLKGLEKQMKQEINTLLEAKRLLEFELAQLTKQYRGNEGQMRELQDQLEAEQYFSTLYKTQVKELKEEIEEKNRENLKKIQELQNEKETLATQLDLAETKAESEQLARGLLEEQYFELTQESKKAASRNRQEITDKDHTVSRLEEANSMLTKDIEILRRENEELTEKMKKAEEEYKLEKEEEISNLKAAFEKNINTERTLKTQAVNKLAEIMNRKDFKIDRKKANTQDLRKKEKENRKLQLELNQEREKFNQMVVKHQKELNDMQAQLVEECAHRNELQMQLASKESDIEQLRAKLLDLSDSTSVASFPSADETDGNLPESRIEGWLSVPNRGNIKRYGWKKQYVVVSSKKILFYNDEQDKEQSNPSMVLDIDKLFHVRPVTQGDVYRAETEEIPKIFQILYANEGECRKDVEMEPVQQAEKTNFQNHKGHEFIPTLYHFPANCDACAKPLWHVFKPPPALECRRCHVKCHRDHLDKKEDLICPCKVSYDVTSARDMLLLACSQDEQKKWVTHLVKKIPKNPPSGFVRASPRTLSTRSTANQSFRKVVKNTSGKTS

A further experiment concerns the target T2, GFP-RhoBTB1 (human) (UniProt O94844).
T2 sequence: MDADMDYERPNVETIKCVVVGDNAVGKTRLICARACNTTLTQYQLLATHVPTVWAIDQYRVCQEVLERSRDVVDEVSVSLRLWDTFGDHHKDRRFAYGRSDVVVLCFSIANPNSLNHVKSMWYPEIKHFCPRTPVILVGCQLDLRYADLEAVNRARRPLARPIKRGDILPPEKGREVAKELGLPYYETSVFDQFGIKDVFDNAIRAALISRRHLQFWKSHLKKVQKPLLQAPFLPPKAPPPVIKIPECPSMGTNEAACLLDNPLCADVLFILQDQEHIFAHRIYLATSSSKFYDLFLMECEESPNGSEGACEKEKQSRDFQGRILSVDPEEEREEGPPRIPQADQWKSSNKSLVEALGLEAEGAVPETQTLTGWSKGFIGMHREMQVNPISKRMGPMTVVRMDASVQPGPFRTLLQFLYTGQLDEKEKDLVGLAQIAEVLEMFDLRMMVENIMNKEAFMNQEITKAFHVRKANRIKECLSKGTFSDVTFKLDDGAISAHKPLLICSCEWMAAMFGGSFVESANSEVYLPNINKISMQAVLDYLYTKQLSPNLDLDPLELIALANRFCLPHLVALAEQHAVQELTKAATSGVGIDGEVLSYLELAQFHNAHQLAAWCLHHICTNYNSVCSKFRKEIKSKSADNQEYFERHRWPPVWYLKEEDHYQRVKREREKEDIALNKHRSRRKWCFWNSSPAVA
Described as above.

Experiment [2] deals with T3, GFP-RhoBTB1 E/K (E64A/K197A) (human) (UniProt O94844).
T3 sequence: T2 sequence with E64A, K197A
Described as above.

The target in experiment [3] is T4, GFP-RhoBTB1 R/C/E (R60A/C62A/E64A) (human) (UniProt O94844).
T4 sequence: T2 sequence with R60A, C62A, E64A
The description is as above.

Experiment [4] concerns the target T5, GFP-RhoBTB1^D198A (human) (UniProt O94844).
T5 sequence: T2 sequence with D198A
Described as above.

In a further experiment the target is T6, GFP-RhoBTB1^E64A (human) (UniProt O94844).
T6 sequence: T2 sequence with E64A
Described as above.

Experiment [5] has as its target T7, GFP-RhoBTB1^K197A (human) (UniProt O94844).
T7 sequence: T2 sequence with K197A
The description is as above.

Where a chain is given by its changes, count along the chain named. No constants are given. Whether binding was seen depends on the method and setting. In cells and extracts the contact can be indirect. Some binding calls cover weakened binding; strength is not graded here. For some of these results: Sequences can lack the tags named with a protein.

Turning to “myc-ROCK1^1–420 (from UniProt Q13464 1-420) (domain or fragment)”, the binding entry with GFP-RhoA^G14V is given as “binds”; in experiment [1], “no binding”.

Consider “myc-ROCK1^375–727 (from UniProt Q13464 375-727) (domain or fragment)”, for which the binding entry with GFP-RhoBTB1 (human) is recorded as “binds”.

With “myc-ROCK1^1096–1354 (from UniProt Q13464 1096-1354) (domain or fragment)”, the binding result with GFP-RhoBTB1 (human) was “no binding”.

Regarding “myc-ROCK1^1–540 (from UniProt Q13464 1-540) (domain or fragment)”, the binding result (in the experiment with GFP-RhoBTB1 (human); in experiment [1]) was “binds” in each case.

On to “myc-ROCK1^1–1080 (from UniProt Q13464 1-1080) (domain or fragment)”, for which the binding result (in the experiment with GFP-RhoBTB1 (human); in experiment [1]) was “binds” throughout.

Consider “myc-ROCK1^1–727 (from UniProt Q13464 1-727) (domain or fragment)”, for which the binding entry (with GFP-RhoA^G14V; with GFP-RhoBTB1 (human); in experiment [2]; in experiment [3]; in experiment [1]; in experiment [4]) was “binds” each time. Further, the binding result (in the experiment with GFP-RhoBTB1^E64A (human); in experiment [5]) was “binds” each time.
